According to article PMC6919601, “Identification of Plasmodium dipeptidyl aminopeptidase allosteric inhibitors by high throughput screening” (PLoS ONE, 2019):
About 230 (0.21%) of roughly 110,000 compounds showed an effect of 50% or more. Some of the results follow.

The compounds below were run against DPAP1 (Plasmodium falciparum, UniProt Q8IIJ9) (assay: primary screen, percent inhibition; read by cleavage of a fluorogenic dipeptide substrate; higher = more effect of the substance).
Set-up: species or system P. falciparum D10 trophozoite lysates; single well
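Note: 30 min substrate incubation versus DMSO and 10 µM JCP410 controls.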

Sequence of DPAP1 (Q8IIJ9 whole entry, looked up): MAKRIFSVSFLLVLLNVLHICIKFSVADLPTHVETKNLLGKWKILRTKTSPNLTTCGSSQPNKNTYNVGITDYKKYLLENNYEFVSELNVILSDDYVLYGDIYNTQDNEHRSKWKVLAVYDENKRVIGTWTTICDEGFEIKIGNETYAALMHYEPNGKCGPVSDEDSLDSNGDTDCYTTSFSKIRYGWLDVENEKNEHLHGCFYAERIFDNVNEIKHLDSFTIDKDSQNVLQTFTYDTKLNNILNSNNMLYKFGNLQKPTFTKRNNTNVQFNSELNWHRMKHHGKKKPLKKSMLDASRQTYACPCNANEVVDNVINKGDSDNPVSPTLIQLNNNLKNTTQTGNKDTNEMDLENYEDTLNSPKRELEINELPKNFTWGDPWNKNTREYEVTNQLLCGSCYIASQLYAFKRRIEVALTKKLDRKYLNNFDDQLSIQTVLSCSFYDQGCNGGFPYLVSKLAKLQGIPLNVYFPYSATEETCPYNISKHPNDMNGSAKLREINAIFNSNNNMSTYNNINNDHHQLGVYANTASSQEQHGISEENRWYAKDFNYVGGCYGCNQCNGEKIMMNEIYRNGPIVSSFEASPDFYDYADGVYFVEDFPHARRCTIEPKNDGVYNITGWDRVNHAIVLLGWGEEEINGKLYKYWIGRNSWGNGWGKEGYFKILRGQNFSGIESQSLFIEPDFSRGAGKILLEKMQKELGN

Going from `C=C(C)Cn1c(SCC#N)nc2sc3c(c2c1=O)CCC3` to `O=c1oc(-c2ccco2)nc2sc3c(c12)CCCC3`, the “% Inhibition @ 10 uM” value falls from 1.01% to -5.11%.

First: O=C(c1ccc(Cl)c([N+](=O)[O-])c1)N1CCCCC1
Second: CCNC(=O)C1CCCN1S(=O)(=O)c1ccc(Cl)c(Cl)c1 (stereo not drawn)
The “% Inhibition @ 10 uM” value of the first is higher: 3.32% for the first, 2.7% for the second.

Going from `COc1ccccc1C1C2=C(O)CCCC2=NC(C)=C1C(=O)Nc1c(F)cccc1F` (stereo not drawn) to `CCOC(=O)c1c(-c2ccccc2)csc1NC(=O)c1noc2c1CCCC2`, the “% Inhibition @ 10 uM” value falls from 6.92% to -4.51%.

Compared with `O=C(CN1C(=O)CSc2ncccc21)NCCC1=CCCCC1`, `O=C(CN1C(=O)c2ccccc2Sc2ncccc21)NCCCN1CCCCC1` is higher in “% Inhibition @ 10 uM” value: -4.15% for the first, 0.436% for the second.

First: O=C(O)Cc1ccc(-n2cnnn2)cc1
Second: CC(C)(C)C(=O)Nc1nnc(Cc2ccc(Cl)cc2)s1
The “% Inhibition @ 10 uM” value of the first is lower: 1% for the first, 1.58% for the second.

Compared with `Oc1c(/C=N/Cc2cccnc2)c(-c2ccccc2)nn1-c1nc2ccccc2s1`, `c1ccc(-c2noc(-c3cccc4ccccc34)n2)cc1` is lower in “% Inhibition @ 10 uM” value: 5.24% for the first, -5.62% for the second.

Going from `O=C(CSc1nc2c(c(=O)n1Cc1ccccc1)SCC2)NCC1CCCO1` (stereo not drawn) to `O=C(CSc1nc2ccsc2c(=O)n1CC1CCC(C(=O)O)CC1)NCCCc1ccccc1` (stereo not drawn), the “% Inhibition @ 10 uM” value rises from -4.93% to 3.47%.

First: COc1ccc(-c2nc(CN3CCC(C(=O)N4CCOCC4)CC3)c(C)o2)cc1OC
Second: COc1ccc(CN2CCCCCC2)cc1OC
The “% Inhibition @ 10 uM” value of the first is lower: -2.85% for the first, 2.33% for the second.

Compared with `O=C(CN1C(=O)c2ccccc2S1(=O)=O)N1CCN(Cc2ccccc2)CC1`, `O=C(c1cccc2c1C(=O)N(Cc1cccnc1)C2)N1CCN(Cc2ccccc2)CC1` is higher in “% Inhibition @ 10 uM” value: -6.49% for the first, -0.499% for the second.

Compared with `Cc1ccc(-c2c(NCCC3=CCCCC3)c(=O)c2=O)cc1`, `Cc1ccc(CNC(=O)C2c3ccccc3C(=O)N3CCc4ccccc4C23)cc1` (stereo not drawn) is higher in “% Inhibition @ 10 uM” value: -1.11% for the first, 5.88% for the second.

Going from `CN(C)Cc1cc(CN(C)C)c(O)c(CCc2ccccc2)n1` to `O=C(O)c1sc(Cl)cc1CCc1ccccc1`, the “% Inhibition @ 10 uM” value rises from 0.716% to 7.76%.

First: Cc1nn(CC(=O)NCCN2CCCCC2C)c(=O)c2nn(-c3ccccc3)c(C)c12 (stereo not drawn)
Second: O=C(O)c1c2c(nc3ccccc13)C(=O)N(C1CCCCC1)C2
The “% Inhibition @ 10 uM” value of the first is higher: 4.65% for the first, -1.51% for the second.

Going from `CN(Cc1ccccc1)C(=O)c1ccc(CS(=O)(=O)Cc2ccc(Cl)cc2)o1` to `O=C(NCCCCc1ccccc1)c1ccc(Cl)cc1Cl`, the “% Inhibition @ 10 uM” value falls from -4.97% to -5.11%.

Compared with `CC1(C)CC(=O)C2=C(C1)OC(N)=C(C#N)C2c1ccc(F)c(F)c1` (stereo not drawn), `CN1C(=O)NC(c2ccccc2OC(F)F)C2=C1CC(C)(C)CC2=O` (stereo not drawn) is lower in “% Inhibition @ 10 uM” value: 3.54% for the first, -1.49% for the second.

Going from `N#CCNC(=O)[C@H](Cc1ccccc1F)NC(=O)OCc1ccccc1` to `O=C(NCCc1ccccc1)C(Cc1ccccc1)NS(=O)(=O)c1cccc2nsnc12` (stereo not drawn), the “% Inhibition @ 10 uM” value rises from -3.48% to -3.23%.

Compared with `COCCCNC(=O)c1ccc2c(c1)sc1nc(-c3ccc(OC)cc3)cn12`, `CCCNC(=O)c1ccc2c(c1)c(C)c(C)n2Cc1ccccc1` is lower in “% Inhibition @ 10 uM” value: 5.08% for the first, -6.45% for the second.

Compared with `Cc1cc(NC(=O)CSc2nc3ncccc3c(=O)n2CCc2ccccc2)[nH]n1`, `Cn1c(SCC(=O)NCCc2ccccc2)nc2c1c(=O)n(Cc1ccccc1Cl)c(=O)n2C` is higher in “% Inhibition @ 10 uM” value: -1.66% for the first, 3.81% for the second.

Going from `CCOc1cc(C2c3c(-c4ccccc4O)n[nH]c3C(=O)N2CCCO)ccc1OCCC(C)C` (stereo not drawn) to `CCOc1cc2c(cc1OCC)C1C(C(=O)N(CC)Cc3ccccc3)c3ccccc3C(=O)N1CC2` (stereo not drawn), the “% Inhibition @ 10 uM” value rises from -1.35% to 1.86%.

First: Cc1cccc(C(=O)Nc2ccccc2N2CCN(C(=O)C(C)C)CC2)c1
Second: COc1ccccc1N1CCN(C(=O)CN(c2ccc(C)cc2)S(C)(=O)=O)CC1
The “% Inhibition @ 10 uM” value of the first is lower: -1.44% for the first, 0.324% for the second.

Going from `COc1ccc(S(=O)(=O)N2CCCC(C(=O)N3CCC(Cc4ccccc4)CC3)C2)cc1` (stereo not drawn) to `CC1CCN(S(=O)(=O)N2CCCC(C(=O)NCc3cccnc3)C2)CC1` (stereo not drawn), the “% Inhibition @ 10 uM” value rises from -3.13% to 2.05%.

First: CCC(=O)N1CCN(c2ccc(NC(=O)c3sc4ccccc4c3Cl)cc2)CC1
Second: Cc1cccc2c1cnn2C(=O)CCC(=O)N1CCN(c2ccccn2)CC1
The “% Inhibition @ 10 uM” value of the first is lower: -2.77% for the first, -1.7% for the second.

First: C/N=C(\SCC(=O)c1ccccc1)c1c(C)n(C)c2ccccc12
Second: COC(=O)c1ccccc1-n1c(C)nc2ccccc2c1=O
The “% Inhibition @ 10 uM” value of the first is lower: -2.64% for the first, 2.92% for the second.

Compared with `CS(=O)(=O)N1CCN(C2=C(Cl)C(=O)c3ccccc3C2=O)CC1`, `Cc1ccc(C)c(S(=O)(=O)N2CCN(C)CC2)c1` is higher in “% Inhibition @ 10 uM” value: 2.03% for the first, 2.22% for the second.

Compared with `Cc1cc(C)c(NC(=O)CN2CCN(c3ccccn3)CC2)c(C)c1`, `Cc1ccc(-c2nnc(N3CCN(C(=O)CSc4nc(C)cc(C)n4)CC3)c3ccccc23)cc1` is lower in “% Inhibition @ 10 uM” value: -2.63% for the first, -4.62% for the second.

Compared with `CCOC(=O)C1=CN(C(C)C)C=C(C(=O)OCC)C1c1ccc(C(F)(F)F)cc1`, `COC(=O)C1=CN(Cc2ccc(OC)cc2)C=C(C(=O)OC)C1c1ccc(C(C)C)cc1` is higher in “% Inhibition @ 10 uM” value: 0.219% for the first, 1.86% for the second.

Compared with `COCc1cc(C)nc(SCC(=O)Nc2cc(Br)cc3cccnc23)c1C#N`, `Cc1cc(C)nc(Nc2ncc(O)n2-c2ccc(Br)cc2)n1` is lower in “% Inhibition @ 10 uM” value: 3.99% for the first, -1.65% for the second.

Compared with `Nc1ccccc1C#Cc1ccccc1`, `O=C(Nc1ccccc1)c1ccccc1Br` is higher in “% Inhibition @ 10 uM” value: 0.101% for the first, 0.912% for the second.

Going from `Cc1ccsc1CN(C(=O)c1ccc(Cl)cc1)C1CCS(=O)(=O)C1` (stereo not drawn) to `Cc1ccc(NC(=O)/C=C/c2ccc(Cl)cc2)cc1C`, the “% Inhibition @ 10 uM” value rises from -2.85% to 3.47%.

First: CCOC(=O)c1ccc(-n2c(C)cc(C=C3C(=O)NC(=O)NC3=O)c2C)cc1
Second: C=CCN1C(=O)/C(=C\c2ccc(OC)cc2)C(C(=O)OC)=C1C
The “% Inhibition @ 10 uM” value of the first is higher: 3.34% for the first, -3.4% for the second.

Going from `COCC1=Nc2nc3ccccc3n2C(c2cc(Br)ccc2OC)/C1=C(/O)OC` (stereo not drawn) to `COc1cc(OC)cc(-c2nc(-c3ccc(OC)c(OC)c3)no2)c1`, the “% Inhibition @ 10 uM” value rises from -7.08% to 1.89%.

First: Cc1ccc2c3c(cccc13)-c1ccccc1C2=O
Second: CCOc1ccc(/C=C2/S/C(=N/c3ccccc3)N(C)C2=O)cc1
The “% Inhibition @ 10 uM” value of the first is lower: -5.36% for the first, -1.26% for the second.

Going from `CC(Oc1ccccc1)C(=O)Nc1cccc(Cl)c1` (stereo not drawn) to `CC1Cn2c(C(=O)NCc3ccccc3)cc3cccc(c32)S1` (stereo not drawn), the “% Inhibition @ 10 uM” value rises from 0.843% to 5.08%.

Compared with `C=CCn1c(=N)c(C(=O)NC)cc2c(=O)n3cccc(C)c3nc21`, `CNC(=O)/C=C1\NC(C)(C)Cc2ccccc21` is higher in “% Inhibition @ 10 uM” value: 0.279% for the first, 0.815% for the second.

Compared with `CCOc1ccc(N2C(=O)C3C4CCCN4C4(C(=O)c5ccccc5C4=O)C3C2=O)cc1` (stereo not drawn), `COc1ccc(OC)c(N2C(=O)CC(N3CCN(c4ccc(F)cc4)CC3)C2=O)c1` (stereo not drawn) is higher in “% Inhibition @ 10 uM” value: -0.992% for the first, -0.545% for the second.

Compared with `CC(C)Cc1cc(-c2cccc(Br)c2)c(C#N)c(N)n1`, `CN(C)c1ccc2c(c1)OC(N)=C(C#N)C21C(=O)Nc2ccc(Br)cc21` (stereo not drawn) is higher in “% Inhibition @ 10 uM” value: -5.74% for the first, -0.0217% for the second.

Compared with `COc1ccc(N(C(C)=O)c2nc(C)cc(C)c2C#N)cc1`, `COc1cc(C(=O)n2nc(C)cc2C)cc(OC)c1OC` is higher in “% Inhibition @ 10 uM” value: -3.37% for the first, 15.9% for the second.

First: O=C(c1scc2c1CCCC2)N1CCN(Cc2ccccc2)CC1
Second: CC(=O)Nc1c(C(=O)N2CCN(CCO)CC2)cnn1-c1ccccc1Cl
The “% Inhibition @ 10 uM” value of the first is lower: 0.189% for the first, 2.27% for the second.

Going from `O=C(NCc1cccs1)C1CC(=O)N(C2CCCC2)C1` (stereo not drawn) to `OCc1ccccc1CN1CCCCCC1`, the “% Inhibition @ 10 uM” value falls from 3.79% to -5.01%.

Going from `O=S(=O)(c1ccccc1)c1nc(-c2cccs2)oc1NCc1ccccc1` to `COc1ccc(NS(=O)(=O)c2ccc(NC(=O)c3ccc4c(c3)OCO4)cc2)cc1`, the “% Inhibition @ 10 uM” value falls from 4.94% to -0.598%.

First: COc1cc2c(cc1OC)C1C(C(=O)NC3CCCC(C)C3C)c3ccccc3C(=O)N1CC2 (stereo not drawn)
Second: COc1cc2c(cc1OC)C(c1ccc(C(C)(C)C)cc1)NCC2 (stereo not drawn)
The “% Inhibition @ 10 uM” value of the first is higher: 3.5% for the first, -1.02% for the second.

Compared with `COc1cccc(NC(=O)C2CCN(C(=O)c3ccc(Br)cc3)CC2)c1`, `COc1ccc(S(=O)(=O)N2CCC(C(=O)NC(C)C)CC2)cc1OC` is lower in “% Inhibition @ 10 uM” value: -2.22% for the first, -3.74% for the second.

Going from `CCOC(=O)c1c(NC(=O)c2ccccc2)sc2c1CC(C)(C)NC2(C)C` to `Cc1nn(C(=O)c2ccccc2)c2c1C(=O)CC(C)(C)C2`, the “% Inhibition @ 10 uM” value falls from 3.6% to 2.4%.

First: O=C(NCCCO)c1nnc(-c2ccccc2)o1
Second: CCOC(=O)C1C(=O)NCC1c1ccccc1 (stereo not drawn)
The “% Inhibition @ 10 uM” value of the first is higher: 5.43% for the first, -0.0372% for the second.

Compared with `CCN1C(=O)/C(=C/c2ccoc2)C(=O)NC1=S`, `COc1ccc(Cn2ccn(Cc3ccc(F)cc3)c(=O)c2=O)cc1` is lower in “% Inhibition @ 10 uM” value: 2.16% for the first, -3.8% for the second.

Compared with `CC(C)CCC(C(N)=O)C1=NC(C)(C)Cc2ccccc21` (stereo not drawn), `CCOC(=O)N1CCC(NC(=O)Cn2ncc3c2-c2ccccc2OC3)CC1` is lower in “% Inhibition @ 10 uM” value: 0.177% for the first, -4.21% for the second.

Compared with `CCOC(=O)N1CCN(S(=O)(=O)c2ccc3nc(O)ccc3c2)CC1`, `CCOC(=O)c1c(CN2CCN(C)CC2)oc2cc(Br)c(OC)c(Br)c12` is lower in “% Inhibition @ 10 uM” value: -3.27% for the first, -4.49% for the second.

Compared with `CC1CCCCN1Cc1c(O)ccc2c(=O)c(-c3ccc4c(c3)OCCO4)coc12` (stereo not drawn), `COc1ccc(C(c2c(O)n3c(nc2=O)SCC3)c2c(O)n3c(nc2=O)SCC3)cc1OC` is higher in “% Inhibition @ 10 uM” value: -5.54% for the first, -0.865% for the second.

Compared with `COCCNC(=O)C1CCN(S(=O)(=O)N2CCC3(CC2)OCCO3)CC1`, `CC(CCc1ccccc1)N1CCN(CCOCCO)CC1` (stereo not drawn) is higher in “% Inhibition @ 10 uM” value: -4.83% for the first, -2.95% for the second.

First: CC(C)CNC(=O)C(=O)Nc1ccc(Cl)cc1
Second: COCC(C)NC(=O)Cn1nc(C)c(NC(=O)c2cc(-c3ccc(OC)c(OC)c3)no2)c1C (stereo not drawn)
The “% Inhibition @ 10 uM” value of the first is lower: -0.414% for the first, 0.807% for the second.

With `CCCc1nn2c(=O)cc(COc3ccc(C=C(C#N)C#N)cc3OC)nc2s1` the “% Inhibition @ 10 uM” value was -9.6%.
